Test results taken from the RNAGym collection of RNA variant scans (doi:10.7554/elife.90254).
Read counts are not given, so values of variants with three or more changes are uncertain.

B1: LINE1-mini (parent)
chain: GGCAGAGCUCAACACAGCGUGGCAAAGUGGCUGUGGCUAGACUGCC

Variants of: B1
Assay: self-cleavage, relative activity (ratio to wild type); higher = more cleavage; in vitro, sequencing; the parent is a self-cleaving ribozyme
For C8U A11C U32A G36C, the self-cleavage was 0.01.
Work on U9A C18U U34C yielded a self-cleavage of 0.03.
In the case of C8U A12G C23A, the self-cleavage is reported as 0.04.
C8U A16C U20C G27U gave a self-cleavage of 0.08.
For U9A A26G A39C G40C, the self-cleavage was 0.1.
Work on U9A C10A G27U C42U yielded a self-cleavage of 0.02.
In the case of C8U A14G A16G, the self-cleavage is reported as 0.07.
With C8U U9G G35A the self-cleavage was 0.03.
Work on U9A C10U G22C G27A yielded a self-cleavage of 0.
Variant U9A C15U G27A G35C U43C has a self-cleavage of 0.11.
With C8U A12U U28C G29U the self-cleavage was 0.06.
U9A C23G A25U G29U C42U C46A gave a self-cleavage of 0.08.
C8U U9A G44U gave a self-cleavage of 0.46.
For U9A A14G U32A, the self-cleavage was 0.04.
For C8G U20C A25G G30C, the self-cleavage was 0.23.
In the case of C8G U20C A39C, the self-cleavage is reported as 0.03.
For U9A G19U C23A C42U, the self-cleavage was 0.22.
Variant C8G U9C C23G A24U G29A has a self-cleavage of 0.02.
U9A G17A G22A G29A G36A gave a self-cleavage of 0.04.
In the case of C8U A16C G29A C31U G33C, the self-cleavage is reported as 0.15.
C8U C15U A16U C31U U43A gave a self-cleavage of 0.02.
With U9A C10U C42G C45A the self-cleavage was 0.03.
In the case of C8U A16G C18A G22C, the self-cleavage is reported as 0.07.
In the case of C8U A11U C13G G19A G40U C42G, the self-cleavage is reported as 0.01.
Work on C8U C15U G22A yielded a self-cleavage of 0.29.
Variant U9A U38A A39G has a self-cleavage of 0.18.
U9A G27C G44U showed a self-cleavage of 0.03.
Work on C8U C23U G35C yielded a self-cleavage of 0.04.
Work on U9A A11U C15U G30C C45A yielded a self-cleavage of 0.02.
C8U C13G C15G G33U G44U showed a self-cleavage of 0.09.
Work on C8U G17U G19C U28A U34A G40C yielded a self-cleavage of 0.01.
C8U C13A C45A showed a self-cleavage of 0.34.
For C8U C10G A25G G33A G40U, the self-cleavage was 0.01.
Variant U9A G33U C46A has a self-cleavage of 0.06.
Work on C8U G22U G40C C45A yielded a self-cleavage of 1.4.
In the case of C8U C13U G21U, the self-cleavage is reported as 0.03.
U9A C31A G36C C45A C46A showed a self-cleavage of 0.1.
In the case of U9C A11G C18G G27C, the self-cleavage is reported as 0.01.
With U9A A12G G17U G22C G35A G36A the self-cleavage was 0.06.
C8U G19C G22A G27U gave a self-cleavage of 0.16.
U9A C18A G35C C45A showed a self-cleavage of 0.01.
Work on C8U A14U G27U C31A yielded a self-cleavage of 0.06.
With U9A G30U U38C the self-cleavage was 0.17.
Work on U9A G21C C23G A39U yielded a self-cleavage of 0.05.
Variant U9A A11U G33U has a self-cleavage of 0.04.
Work on U9A G21U U38C yielded a self-cleavage of 0.06.
With C8U C13G C15A G19A A25U G40U the self-cleavage was 0.02.
Variant C8U C10G G19A C45U has a self-cleavage of 0.
C8U G17U C18A showed a self-cleavage of 0.04.
Variant C8U A26C G36U has a self-cleavage of 0.32.
For C8U G21A A41C, the self-cleavage was 0.24.
Work on C8U C10G C15U C18G yielded a self-cleavage of 0.03.
Work on U9A G40U C45U yielded a self-cleavage of 0.56.
Variant C8U U28A C31G U43G has a self-cleavage of 0.35.
With U9A G22U C23A the self-cleavage was 0.14.
With C8U A24C C45A the self-cleavage was 0.1.
In the case of C8G G29A G30A, the self-cleavage is reported as 0.14.
Variant U9C A12U U20G C31A C45G C46A has a self-cleavage of 0.02.
C8U G30U U38A gave a self-cleavage of 0.26.
U9A A24U A25U A39C C46G gave a self-cleavage of 0.08.
With U9A C18U G33A the self-cleavage was 0.02.
C8G G35U G40U showed a self-cleavage of 0.01.
In the case of C8G U20G C31A, the self-cleavage is reported as 0.03.
C8U G19U C37A gave a self-cleavage of 0.07.
Work on U9A A39G U43C G44U yielded a self-cleavage of 0.02.
For C8U U9A G33C, the self-cleavage was 0.06.
Variant C8U C10U C45A has a self-cleavage of 0.02.
Work on C8U G35U C45U yielded a self-cleavage of 0.39.
U9A C18A G22C G36A gave a self-cleavage of 0.03.
C8U C15U G33A gave a self-cleavage of 0.36.
With C8G G33C U34A A39C the self-cleavage was 0.03.
For C8G G35U C45U, the self-cleavage was 0.03.
For U9A A12G A14C, the self-cleavage was 0.02.
Work on U9A C10U C23G G35U yielded a self-cleavage of 0.03.
Work on C8U G21A C23U A24G G29U yielded a self-cleavage of 0.12.
Work on C8U A12U G27A G33C yielded a self-cleavage of 0.19.
With U9A A39C G44C the self-cleavage was 0.01.
Variant C8U G36A G40C has a self-cleavage of 0.28.
U9A C10U G30U gave a self-cleavage of 0.05.
Variant C8U G29U G30C G40A has a self-cleavage of 0.04.
In the case of U9A C15U A39U C46A, the self-cleavage is reported as 0.28.
Variant C8U U28C C37G C42U has a self-cleavage of 0.01.
For C8U A16U G33U, the self-cleavage was 0.12.
C8U A14C C18U U28A gave a self-cleavage of 0.01.
For U9A A12G G44A C45G, the self-cleavage was 0.14.
In the case of C8U G22U C37U, the self-cleavage is reported as 0.09.
For C8U A16G A25C G27A G36C, the self-cleavage was 0.08.
Work on C8U A25U G29U G40A yielded a self-cleavage of 0.05.
With C8U U28G G30C the self-cleavage was 0.07.
With U9A A25U A39U G44U the self-cleavage was 0.03.
With U9A A16C C42U the self-cleavage was 0.03.
For U9A C10U C18A C23A G33C C45G, the self-cleavage was 0.01.
Work on C8U C13A G19U yielded a self-cleavage of 0.26.
For U9C A12U C13U A16U, the self-cleavage was 0.04.
In the case of U9A C13A U38A, the self-cleavage is reported as 0.78.
For C8U G30U C45U, the self-cleavage was 0.61.
Variant C8G G27C A41U has a self-cleavage of 0.02.
U9A C18U G21A showed a self-cleavage of 0.16.
U9A A14U C37G gave a self-cleavage of 0.14.
For U9A G17U A26C, the self-cleavage was 0.09.
With C8U A12G C13A G30A the self-cleavage was 0.03.
Variant C8U U20A A26U has a self-cleavage of 0.15.
For U9A C10U G29A, the self-cleavage was 0.04.
U9A C13A A24C U38A showed a self-cleavage of 0.12.
C8U C15A G27U U38C showed a self-cleavage of 0.09.
U9A C10U U32G gave a self-cleavage of 0.02.
U9A A25G C45U gave a self-cleavage of 0.14.
C8U A11U A16G C42A gave a self-cleavage of 0.01.
U9A C10U G30U C42A gave a self-cleavage of 0.05.
With C8U G29C U43A the self-cleavage was 0.03.
Work on C8U G19U U20A C31A yielded a self-cleavage of 0.08.
Variant U9A G22U U32G has a self-cleavage of 0.19.
In the case of C8G U9A C13A G35C, the self-cleavage is reported as 0.08.
For U9A A14C C23A G36A A39U A41C, the self-cleavage was 0.01.
With U9A U20A A26U G35A the self-cleavage was 0.01.
With U9A G17C U38C the self-cleavage was 0.03.
For U9A A25G G40U, the self-cleavage was 0.37.
Work on U9A A25U G27A yielded a self-cleavage of 0.19.
C8U C10A C18G C42A G44A gave a self-cleavage of 0.
In the case of U9A C10A A12C G35U, the self-cleavage is reported as 0.02.
With C8U A14U C31U U38C the self-cleavage was 0.05.
With C8U C23U G40U the self-cleavage was 0.57.
In the case of C8U C10G C45G, the self-cleavage is reported as 0.03.
In the case of C8U U38C A39U, the self-cleavage is reported as 0.13.
With U9A G21C C46A the self-cleavage was 0.14.
Variant U9A C18U A26C U32G has a self-cleavage of 0.03.
Work on C8U U9A G17C A39C yielded a self-cleavage of 0.29.
Work on U9A G35U U38C yielded a self-cleavage of 0.06.
In the case of C8U A14G G19U G35A, the self-cleavage is reported as 0.03.
For C8U C13U G21U A41U, the self-cleavage was 0.37.
For U9A A12C C18G, the self-cleavage was 0.01.
Work on U9C A11U C23U A41U U43A yielded a self-cleavage of 0.
With U9A A16U U20G U32A G44C the self-cleavage was 0.06.
U9A C13A U20A G36C C45A gave a self-cleavage of 0.08.
U9A U28C U38G showed a self-cleavage of 0.1.
C8U U32A G44U showed a self-cleavage of 0.07.
In the case of C8U G29U C42U G44U, the self-cleavage is reported as 0.11.
With C8U C18A C46U the self-cleavage was 0.17.
C8U C10A G17C U38A C42G gave a self-cleavage of 0.01.
With C8U U20A G40U the self-cleavage was 0.32.
With C8U G22A G35C G44A the self-cleavage was 0.14.
With U9A C18A C45U the self-cleavage was 0.1.
U9A A12G C13U gave a self-cleavage of 0.12.
In the case of C8U C10G C23U G30U A39G, the self-cleavage is reported as 0.02.
U9A C10A C13U U32G gave a self-cleavage of 0.03.
U9C A11C A14G A16C C46U showed a self-cleavage of 0.
Work on U9A C15U G35C G44C yielded a self-cleavage of 0.56.
In the case of U9C A12U C13G G19C A24U G44A, the self-cleavage is reported as 0.02.
Work on C8U G27A G30A yielded a self-cleavage of 0.09.
With U9A G22A G27U U43A the self-cleavage was 0.12.
In the case of C8G G33C A39U C42U, the self-cleavage is reported as 0.04.
For U9A A14C C18A G21A U34A, the self-cleavage was 0.21.
With U9A A11G A12U G33U the self-cleavage was 0.01.
For U9A G29C C45U, the self-cleavage was 0.04.
In the case of C8G U9C G21C A24C, the self-cleavage is reported as 0.03.
With C8U U38C C45G the self-cleavage was 0.23.
For C8U C18U C23A G30U U34A, the self-cleavage was 0.02.
For U9A C13A G17C G21U A25G G29A C31G, the self-cleavage was 0.24.
C8U A11U G29U showed a self-cleavage of 0.02.
Variant C8U G30A A39G has a self-cleavage of 0.08.
Work on C8U G21C A26C yielded a self-cleavage of 0.05.
U9A G29A G35A C37G C45U showed a self-cleavage of 0.02.
In the case of U9A G27C G33U, the self-cleavage is reported as 0.07.
Variant C8U A24U G44A has a self-cleavage of 0.12.
For C8U A14G U32C, the self-cleavage was 0.09.
With C8U A11U C31A the self-cleavage was 0.01.
In the case of C8U A12U G33C, the self-cleavage is reported as 0.01.
